Source: PubChem BioAssay AID504333 (National Center for Advancing Translational Sciences (NCATS), 2011)
Screen size: about 360,000 compounds; about 16,000 (4.4%) were called active. The inconclusive results got no clear call from the source; some entries with a clear call stand among them for comparison. The call rests on the fitted dose curve; in most records, active means well fitted inhibition curve with a large enough effect; inconclusive means small, poorly fitted or top-dose-only effect; inactive means no such curve, though single readings can be large or run the other way. A potency beside an inconclusive call is a rough fit, not a confirmed value.

biological target: Bromodomain adjacent to zinc finger domain protein 2B (Homo sapiens) (UniProt Q9UIF8); assay: qHTS Assay for Inhibitors of BAZ2B; conditions: AlphaScreen BAZ2B-H3K14Ac peptide displacement; series mostly up to 114 µM; further: nearly all actives have a fitted effect of over 60% in size
How it was run: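 Protein-peptide AlphaScreen: BAZ2B 50 nM, b-H3K14Ac 50 nM, 1x PBS pH 7.4 + 0.01% Tween-20. Preincubation 30 min RT; cpd 30 min RT (top 110 uM); beads 20 min RT, light-protected.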
Potency means the concentration at half of the fitted maximal effect; tags describe the fitted curve by direction and shape.

Sequence of UniProt Q9UIF8 (Q9UIF8 whole entry, looked up, the tested form may be a part): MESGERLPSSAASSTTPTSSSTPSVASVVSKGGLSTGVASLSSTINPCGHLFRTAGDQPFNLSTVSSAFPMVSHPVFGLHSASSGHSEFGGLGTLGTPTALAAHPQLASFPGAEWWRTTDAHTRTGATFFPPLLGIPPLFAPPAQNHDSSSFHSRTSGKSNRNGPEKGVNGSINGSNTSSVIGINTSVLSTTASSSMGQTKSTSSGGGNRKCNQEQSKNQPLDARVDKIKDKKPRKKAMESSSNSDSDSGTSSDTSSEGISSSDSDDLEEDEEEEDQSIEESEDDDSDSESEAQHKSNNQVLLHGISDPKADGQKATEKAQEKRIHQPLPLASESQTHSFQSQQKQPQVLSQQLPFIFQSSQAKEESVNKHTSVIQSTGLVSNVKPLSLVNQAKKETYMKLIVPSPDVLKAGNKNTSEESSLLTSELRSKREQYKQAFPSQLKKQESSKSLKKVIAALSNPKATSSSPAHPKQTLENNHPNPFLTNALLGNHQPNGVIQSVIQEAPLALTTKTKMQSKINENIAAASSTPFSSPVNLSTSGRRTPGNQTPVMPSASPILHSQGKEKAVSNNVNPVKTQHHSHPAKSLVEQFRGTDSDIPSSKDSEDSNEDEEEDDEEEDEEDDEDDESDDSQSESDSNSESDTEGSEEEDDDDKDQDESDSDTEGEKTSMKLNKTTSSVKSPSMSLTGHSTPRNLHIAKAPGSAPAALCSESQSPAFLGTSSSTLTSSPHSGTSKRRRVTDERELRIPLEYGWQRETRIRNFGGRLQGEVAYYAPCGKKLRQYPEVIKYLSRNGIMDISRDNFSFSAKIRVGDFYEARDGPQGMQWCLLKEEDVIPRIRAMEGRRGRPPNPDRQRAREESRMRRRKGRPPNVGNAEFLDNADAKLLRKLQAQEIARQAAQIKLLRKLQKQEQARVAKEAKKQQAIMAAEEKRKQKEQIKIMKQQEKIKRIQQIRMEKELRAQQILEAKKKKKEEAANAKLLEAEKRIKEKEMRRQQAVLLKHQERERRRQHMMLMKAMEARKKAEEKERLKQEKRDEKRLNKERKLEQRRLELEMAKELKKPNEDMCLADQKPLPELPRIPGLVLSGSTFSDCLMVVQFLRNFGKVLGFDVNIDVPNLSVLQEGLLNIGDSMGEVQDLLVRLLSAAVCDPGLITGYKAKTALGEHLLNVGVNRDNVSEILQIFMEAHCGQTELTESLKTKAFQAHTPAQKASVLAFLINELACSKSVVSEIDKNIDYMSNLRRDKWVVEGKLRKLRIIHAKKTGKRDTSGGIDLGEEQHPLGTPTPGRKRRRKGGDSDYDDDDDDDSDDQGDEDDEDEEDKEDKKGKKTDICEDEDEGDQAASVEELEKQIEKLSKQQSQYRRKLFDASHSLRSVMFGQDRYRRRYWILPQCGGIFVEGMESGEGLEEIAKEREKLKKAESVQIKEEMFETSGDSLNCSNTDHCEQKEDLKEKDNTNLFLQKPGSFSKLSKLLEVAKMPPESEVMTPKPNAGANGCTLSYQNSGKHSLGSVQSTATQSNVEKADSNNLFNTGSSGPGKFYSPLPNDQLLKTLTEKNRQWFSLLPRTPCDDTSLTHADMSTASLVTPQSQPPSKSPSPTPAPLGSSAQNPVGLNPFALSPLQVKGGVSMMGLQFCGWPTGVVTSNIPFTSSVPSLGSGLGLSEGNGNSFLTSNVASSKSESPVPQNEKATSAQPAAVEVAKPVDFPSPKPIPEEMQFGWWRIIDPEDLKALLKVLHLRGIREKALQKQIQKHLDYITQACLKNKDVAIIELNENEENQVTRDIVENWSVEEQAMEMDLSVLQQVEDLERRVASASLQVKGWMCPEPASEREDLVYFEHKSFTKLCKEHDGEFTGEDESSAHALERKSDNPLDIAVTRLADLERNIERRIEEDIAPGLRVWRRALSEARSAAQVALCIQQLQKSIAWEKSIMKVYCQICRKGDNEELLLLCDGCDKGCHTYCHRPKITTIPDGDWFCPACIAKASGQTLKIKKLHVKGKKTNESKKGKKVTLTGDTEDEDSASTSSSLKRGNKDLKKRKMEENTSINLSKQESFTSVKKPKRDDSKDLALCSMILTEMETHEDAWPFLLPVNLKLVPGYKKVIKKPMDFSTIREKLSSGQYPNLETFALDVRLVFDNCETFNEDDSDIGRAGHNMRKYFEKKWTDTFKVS

Row | SMILES | Potency
1 | O=c1[nH]c(SCc2ccc(F)cc2)nc2c1CCCC2 | inactive
2 | Cc1ccc(C(=O)CSc2nccn2-c2ccccc2)cc1 | active: 56.2 µM
3 | CC1CN(C(=O)N2CCC(C(=O)NC3CCCCCC3)CC2)c2cc(Cl)ccc2O1 (stereo not given) | inactive
4 | CCN(CC)CCCNC(=O)c1cc(-c2ccc(OC)c(OC)c2)on1 | inactive
5 | CN(C)S(=O)(=O)c1cccc(NC(=O)CNCC2CCCCC2)c1 | inconclusive: 50.1 µM [inhibitor, partial curve]
6 | COc1ccc(-n2c(C)cc(/C=N/Nc3nc(N4CCOCC4)nc(N4CCOCC4)n3)c2C)cc1 | inconclusive: 50.1 µM [inhibitor, partial curve]
7 | Cc1c2cnn(CC(=O)NC3CCCC3)c(=O)c2c(C)n1Cc1ccccc1 | inconclusive: 79.4 µM [inhibitor, single point]
8 | CCC(=O)NC1=C(Cl)C(=O)C(NC(=O)CC)=C(Cl)C1=O | active: 44.7 µM
9 | N#Cc1c(N)oc(-c2ccccc2)c1-c1ccccc1 | inactive
10 | O=C(c1ccc2c(c1)OCCO2)N(Cc1cccnc1)c1nc2ccc(F)cc2s1 | inactive
11 | Cc1cc(C(=O)N2CCC(Cc3ccccc3)CC2)c(C)o1 | inconclusive: 79.4 µM [inhibitor, single point]
12 | COc1ccc(OC2C(=O)N(c3ccc(F)cc3)C2c2ccc(OC)c(OC)c2)cc1 (stereo not given) | inconclusive: 79.4 µM [inhibitor, single point]
13 | CCN(CC)c1ccc(CNCc2cccs2)cc1 | active: 50.1 µM
14 | CC1=C(C(=O)Nc2ccc(C(=O)N3CCN(c4ccccc4F)CC3)cc2)SCCO1 | inconclusive: 50.1 µM [inhibitor, partial curve]
15 | FC(F)(F)c1ccccc1/C=N/N1CCN(Cc2ccccc2)CC1 | active: 39.8 µM
16 | CCCn1c(Nc2nc3ccccc3n2C)nc2ccccc21 | active: 8.91 µM
17 | CC(=O)c1ccc(-n2c(CCC(=O)O)ccc2-c2ccc(Cl)cc2)cc1 | inconclusive: 50.1 µM [inhibitor, partial curve]
18 | O=c1cc2c(nn1Cc1cccc([N+](=O)[O-])c1)-c1ccccc1CC2 | inconclusive: 31.6 µM [inhibitor, partial curve]
19 | CCN(CC)c1ccc(S(=O)(=O)N2CCOCC2)cc1NC(=O)CN1CCN(Cc2ccccc2)CC1 | active: 22.4 µM
20 | CN(Cc1cccs1)S(=O)(=O)c1ccc(Cl)cc1F | inactive
21 | O=C(Cc1c(F)cccc1Cl)NNC(=O)Nc1ccc2c(c1)OCO2 | inactive
22 | O=C(C(=S)N1CCOCC1)c1c[nH]c2ccccc12 | inconclusive: 79.4 µM [inhibitor, single point]
23 | CCCN1CCN(CCNC(=O)Nc2cc(OC)cc(OC)c2)CC1 | inactive
24 | C#CCOCCOCCOCCNc1nc(N2CCN(C(=O)[C@H](CCCCN)n3cc([C@@H](N)C(C)CC)nn3)CC2)nc(N2CCN(C(=O)[C@H](Cc3ccc(O)cc3)n3cc([C@@H](N)C(C)CC)nn3)CC2)n1 (stereo not given in full) | active: 44.7 µM
25 | O=[N+]([O-])c1cccc(C=Nc2cccc3ccccc23)c1O | inconclusive: 70.8 µM [inhibitor, single point]

Row | SMILES | Potency
26 | Cc1ccc(/C=N/n2c(-c3ccncc3)n[nH]c2=S)o1 | inconclusive: 89.1 µM [inhibitor, single point]
27 | CC1=C/C(=N\Nc2ccccc2[N+](=O)[O-])CC(C)(C)C1 | active: 2.82 µM
28 | Cc1nn(CC(=O)Nc2nccs2)c(C)c1[N+](=O)[O-] | inconclusive: 89.1 µM [inhibitor, single point]
29 | COC(=O)c1cc2oc(C)cc2n1Cc1c(C)cc(C)cc1C | inconclusive: 39.8 µM [inhibitor, partial curve, poor fit]
30 | COC(=O)c1ccc(CN(c2ccc(C(=O)O)c(O)c2)S(=O)(=O)c2ccc(Cl)c([N+](=O)[O-])c2)cc1 | inconclusive: 25.1 µM [inhibitor, full curve, poor fit]
31 | OCCC1CN(Cc2cnc(N3CCCC3)s2)CCN1Cc1ccccc1 (stereo not given) | inactive
32 | COc1cc2c(=O)n(Cc3ccccc3)c(=O)n(CC(=O)Nc3cc(C(F)(F)F)ccc3Cl)c2cc1OC | inactive
33 | COc1cccc(NC(=O)CCNC(=O)N2CC(=O)Nc3ccccc32)c1 | inactive
34 | S=c1[nH]nc(-c2cc3ccccc3o2)n1Cc1ccccc1 | inconclusive: 89.1 µM [inhibitor, single point]
35 | Cc1ccc(OCCNC(=O)Cc2ccc(F)cc2)cc1 | inactive
36 | COc1ccc(-c2cc3c(=O)n(CC(=O)NCc4cccnc4)nc(C)n3n2)cc1 | inconclusive: 89.1 µM [inhibitor, single point]
37 | O=C(N/N=C/C(Br)=C/c1ccccc1)C(O)c1ccccc1 (stereo not given) | inactive
38 | COc1ccc(O)c(N)c1 | active: 50.1 µM
39 | Cc1ccc(-c2noc(C3CCCN(C(=O)c4c(F)cccc4F)C3)n2)cc1 (stereo not given) | inactive
40 | COCCOC(=O)C1=C(C)OC(N)=C(C#N)C1c1cc2cccc(C)c2nc1Cl (stereo not given) | active: 50.1 µM
41 | CCOc1ccc(NC(=O)N2CCC(n3nnc4ccccc43)CC2)cc1 | inconclusive: 70.8 µM [inhibitor, single point]
42 | C=CCc1cccc(/C=N/n2c(C)nnc2C)c1O | inactive
43 | CC(/C=N/NC(=O)c1cc(-c2ccccc2)nc2ccccc12)=C\c1ccco1 | inconclusive: 39.8 µM [inhibitor, full curve, poor fit]
44 | O=C1/C(=C\Nc2ccccc2)CCN1c1ncccn1 | inconclusive: 89.1 µM [inhibitor, single point]
45 | CCOc1ccc(N=C2Sc3nc4ccc(C)cc4cc3CN2CCOC)cc1 | inconclusive: 79.4 µM [inhibitor, partial curve]
46 | CCN(C(=O)CSc1nc2cc(S(=O)(=O)N(CC)CC)ccc2o1)C1CCS(=O)(=O)C1 (stereo not given) | inactive
47 | O=C(Nc1cccnc1)OCc1ccccc1 | inconclusive: 89.1 µM [inhibitor, single point]
48 | CCOc1ccc(NC(=S)NCc2ccc3c(c2)OCO3)cc1 | inconclusive: 56.2 µM [inhibitor, partial curve]
49 | O=C(O)c1cccc(NC(=O)c2cccc(S(=O)(=O)Nc3cccc([N+](=O)[O-])c3)c2)c1 | inactive
50 | O=C(C1CCN(Cc2ccccc2)CC1)N1CCN(C/C=C/c2ccccc2)CC1 | inconclusive: 50.1 µM [inhibitor, partial curve]

Row | SMILES | Potency
51 | CCC1CN(C(=O)Nc2ccccc2C(F)(F)F)c2ccccc2O1 (stereo not given) | inactive
52 | CN(C)c1ccc(N=Nc2cccc(F)c2)cc1 | active: 4.47 µM
53 | Cc1ccc(C(C)c2c(C)c([N+](=O)[O-])cc(C)c2[N+](=O)[O-])cn1 (stereo not given) | inactive
54 | CN(C)S(=O)(=O)c1ccc(C(=O)NCCN2C(=O)S/C(=C\c3cccnc3)C2=O)cc1 | inactive
55 | Cc1ccc2c(c1)N(S(=O)(=O)c1ccc(CN3C(=O)c4cccnc4C3=O)cc1)CCO2 | inconclusive: 79.4 µM [inhibitor, single point]
56 | C=CCn1c(CNc2ccc(C)cc2)nnc1SCC(=O)N/N=C/c1ccc(O)cc1O | inconclusive: 89.1 µM [inhibitor, single point]
57 | Cc1ccc2c(c1)c(=O)c(C(=O)c1ccccc1)cn2Cc1ccccc1F | inconclusive: 79.4 µM [inhibitor, partial curve]
58 | COc1ccc(N2CCN(c3ccc(N4C(=O)CC(C)C4=O)cc3[N+](=O)[O-])CC2)cc1 (stereo not given) | inconclusive: 39.8 µM [inhibitor, partial curve]
59 | Cc1cnc(CNC(=O)c2ccc3oc(Cc4ccccc4)nc3c2)[nH]1 | inconclusive: 39.8 µM [inhibitor, partial curve]
60 | O=C(N/N=C/c1cn(Cc2cccc(F)c2)c2ccccc12)c1cc(O)cc(O)c1 | active: 6.31 µM
61 | CCOC(=O)N1CCC(N2Cc3cccc(C(=O)NCc4ccc(OC)cc4)c3C2=O)CC1 | inconclusive: 89.1 µM [inhibitor, single point]
62 | CCN1CCN(S(=O)(=O)c2ccc(Cl)c(C(=O)N(C)Cc3ccc(Cl)cc3Cl)c2)CC1 | inconclusive: 79.4 µM [inhibitor, single point]
63 | CCOc1ccc2c(c1)c(N=Nc1cccc(C(=O)O)c1)c(O)n2C | inconclusive: 50.1 µM [inhibitor, partial curve]
64 | O=C(Nc1n[nH]c(=S)s1)c1ccco1 | inconclusive: 89.1 µM [inhibitor, single point]
65 | CC(O)CNC(=O)C(=O)Nc1c2c(nn1-c1ccc(Cl)cc1)CSC2 (stereo not given) | inactive
66 | COc1ccc(NC(=O)C2CCCN(C(=O)c3cnn(-c4ccccc4)c3-n3cccc3)C2)cc1 (stereo not given) | inactive
67 | CCOC(=O)N1CCc2c(sc(NC(=O)Cc3ccccc3)c2C(=O)c2ccc(OC)cc2)C1 | inactive
68 | CSc1ccccc1NC(=O)CSCc1ccc(C)cc1 | inactive
69 | CC1CCN(C(=O)c2ccc(N3C(=O)C4CCC(C)CC4C3=O)cc2)CC1 (stereo not given) | inactive
70 | Cc1ccc2[nH]c(C(=O)N/N=C/c3ccccc3O)c(C)c2c1 | inactive
71 | CN(CC(=O)Nc1ccc(Cl)c(C(F)(F)F)c1)C(=O)c1cn2ccccc2n1 | inconclusive: 89.1 µM [inhibitor, single point]
72 | COc1cccc(CN(C(=O)COc2ccccc2[N+](=O)[O-])C2CCS(=O)(=O)C2)c1 (stereo not given) | inactive
73 | COc1ccc(CN2C(=NC(=O)c3ccccc3)SC3CS(=O)(=O)CC32)cc1 (stereo not given) | inconclusive: 70.8 µM [inhibitor, single point]
74 | CN=c1scc(C)n1/N=C/c1ccc(O)c(O)c1O | active: 25.1 µM
75 | COc1ccccc1-c1nc2c(c(SCC(=O)Nc3ccccc3F)n1)Cc1c(CO)cnc(C)c1O2 | inactive
